Experimental data: patent publication US6660767B2, “Coumarin compounds as microtubule stabilizing agents and therapeutic uses thereof” (The Regents of the University of California, priority 2001, dated 2003)

Tested on: microtubule plus ends
Assay: Steady-state dynamic instability of individual microtubules by DIC video microscopy
Assay type: biochemical, bovine
Details: plus ends at steady state
Protocol: Analysis of dynamic instability behavior of individual microtubules at steady state was conducted with real-time DIC video microscopy as described by Walker et al. (1988) J. Cell Biol. 107:1437-1448 and Panda et al. (1995) Biochem 34:9921-9929, both of which are herein incorporated by reference. A Hamamatsu C2400 Newvicon video camera was used to capture the images of microtubules which were enhanced with a Hamamatsu DVS3000 digital image processor. Analysis of length changes was performed using a video analysis software program designed by N. Gliksman at the University of North Carolina.
Microtubules were grown at the ends of sea urchin flagellar axonemal fragments (seeds) to distinguish the plus and minus ends. The microtubules were allowed to achieve polymer-mass steady state which took less than about 30 minutes, and analysis of the steady-state dynamics was carried out for about 30 minutes to about 45 minutes without deterioration of the microtubules or any detectable changes in dynamics. The individual dynamic instability parameters were analyzed quantitatively. These included the rates of growing and shortening, the lengths of time microtubules grow and shorten, the mean lengths of each growing or shortening event, the transition frequencies from the growing or attenuated state to shortening or from shortening to the growing or attenuated or paused state, the percentage of total time the microtubules spend growing, shortening, or in the attenuated state, and the overall dynamicity, the combined total observable growing and shortening per unit time. See Kowalski, R. J. et al. (1993) 26(4):282-290, which is herein incorporated by reference.
Tubulin pellets were thawed and centrifuged at 4° C. to remove any aggregated or denatured tubulin. The purified tubulin was mixed with axoneme seeds and polymerized in PMME buffer (87 mM PIPES, 36 mM MES, 1.4 mM MgCl2, 1 mM EGTA, pH 6.8) comprising 1 mM GTP in the presence or absence of coumarin compounds. […].
After 35 minutes of incubation, samples of microtubule suspensions (2.5 μl and 2.0 μl) were prepared for video microscopy, and the dynamics of individual microtubules were recorded at 37° C. as described previously (Panda et al. (1995) Biochem. 34:9921-9929, which is herein incorporated by reference).
The microtubule was determined to be in a growing phase if the microtubule increased in length by >0.2 μM at a rate >0.15 μm/min and in a shortening phase if the microtubule shortened in length by >0.2 μM at a rate >0.3 μm/min. Length changes equal to or less than 0.2 μm over the duration of six data points were considered as attenuation phases. The same tubulin preparation for all experiments was used and for preliminary experiments, an average of about 10 to about 15 microtubules was measured for each experimental condition, and for the results provided in Table 1, about 20 to about 30 microtubules were analyzed for each experimental condition.
The catastrophe frequency (transition from the growing or attenuated state to shortening) was calculated by dividing the number of catastrophes by the sum of the total time spent in the growing plus attenuated states for all microtubules for a particular condition. The rescue frequency (transition from shortening to growing or attenuation, excluding new growth from a seed) was calculated by dividing the total number of rescue events by the total time spent shortening for all microtubules for a particular condition. Control microtubules alternated between phases of growing and shortening, but also spent a small percentage of time in an attenuated state.

O=c1oc2ccccc2c(O)c1Cc1c(O)c2ccccc2oc1=O [dicoumarol]
Mean Duration Shortening (dicoumarol 0.04 μM): 0.37 ± 0.13 min | Mean Rate Growing (dicoumarol 0.04 μM): 0.61 ± 0.07 μm/min | Mean Rate Shortening (dicoumarol 0.04 μM): 18.90 μm/min | Total Time Attenuated (dicoumarol 0.04 μM): 17.7% | Total Time Growing (dicoumarol 0.04 μM): 60.3% | Total Time Shortening (dicoumarol 0.04 μM): 22.0% | Transition Frequencies Catastrophe (dicoumarol 0.04 μM): 0.70 events/min | Transition Frequencies Rescue (dicoumarol 0.04 μM): 2.00 events/min | Mean Duration Shortening (dicoumarol 0.1 μM): 1.10 ± 0.43 min | Mean Rate Growing (dicoumarol 0.1 μM): 0.53 ± 0.10 μm/min | Mean Rate Shortening (dicoumarol 0.1 μM): 12.10 μm/min | Total Time Attenuated (dicoumarol 0.1 μM): 37.6% | Total Time Growing (dicoumarol 0.1 μM): 34.7% | Total Time Shortening (dicoumarol 0.1 μM): 27.8% | Transition Frequencies Catastrophe (dicoumarol 0.1 μM): 0.22 events/min | Transition Frequencies Rescue (dicoumarol 0.1 μM): 0.38 events/min | Mean Duration Shortening (dicoumarol 1.0 μM): 0.86 ± 0.34 min | Mean Rate Growing (dicoumarol 1.0 μM): 0.63 ± 0.08 μm/min | Mean Rate Shortening (dicoumarol 1.0 μM): 7.80 ± 4.80 μm/min | Total Time Attenuated (dicoumarol 1.0 μM): 50.5% | Total Time Growing (dicoumarol 1.0 μM): 32.3% | Total Time Shortening (dicoumarol 1.0 μM): 17.3% | Transition Frequencies Catastrophe (dicoumarol 1.0 μM): 0.24 events/min | Transition Frequencies Rescue (dicoumarol 1.0 μM): 1.03 events/min | Mean Duration Shortening (dicoumarol 10.0 μM): 0.51 ± 0.15 min | Mean Rate Growing (dicoumarol 10.0 μM): 0.63 ± 0.10 μm/min | Mean Rate Shortening (dicoumarol 10.0 μM): 7.40 ± 2.40 μm/min | Total Time Attenuated (dicoumarol 10.0 μM): 71.2% | Total Time Growing (dicoumarol 10.0 μM): 20.7% | Total Time Shortening (dicoumarol 10.0 μM): 8.1% | Transition Frequencies Catastrophe (dicoumarol 10.0 μM): 0.11 events/min | Transition Frequencies Rescue (dicoumarol 10.0 μM): 1.20 events/min | Mean Duration Shortening (dicoumarol 50.0 μM): 1.40 ± 0.07 min | Mean Rate Growing (dicoumarol 50.0 μM): 0.54 ± 0.07 μm/min | Mean Rate Shortening (dicoumarol 50.0 μM): 1.10 ± 0.20 μm/min | Total Time Attenuated (dicoumarol 50.0 μM): 51.3% | Total Time Growing (dicoumarol 50.0 μM): 41.9% | Total Time Shortening (dicoumarol 50.0 μM): 6.8% | Transition Frequencies Catastrophe (dicoumarol 50.0 μM): 0.07 events/min | Transition Frequencies Rescue (dicoumarol 50.0 μM): 0.80 events/min
